The results in this text go back to the BET-seq Pho4 binding data (Le et al. 2018).

This is one part of the list. Values were computed here from the reads of four pooled replicates and scatter widely.

The assay has as its target T1, Pho4 (S. cerevisiae) (UniProt P07270).
T1 sequence: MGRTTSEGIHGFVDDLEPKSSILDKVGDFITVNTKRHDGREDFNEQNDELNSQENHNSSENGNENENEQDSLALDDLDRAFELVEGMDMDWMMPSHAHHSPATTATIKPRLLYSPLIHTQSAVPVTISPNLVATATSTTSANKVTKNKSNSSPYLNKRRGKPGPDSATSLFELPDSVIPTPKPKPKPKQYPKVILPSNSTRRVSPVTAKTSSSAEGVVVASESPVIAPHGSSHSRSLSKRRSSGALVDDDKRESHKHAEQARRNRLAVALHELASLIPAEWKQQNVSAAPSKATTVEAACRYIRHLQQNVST
The assay can be described thus: relative binding free energy (BET-seq); higher = weaker binding. Particulars: reference: library average.
Regarding AAGTGCACGTGTCAGG, the “relative binding free energy” value was -0.167 kJ/mol.
Under TCTGTCACGTGTTTGG stands 0.837 kJ/mol.
To TGTAGCACGTGGATGA belongs -0.377 kJ/mol; to TTCGTCACGTGAGGTC, 1.59 kJ/mol.
To TAAAGCACGTGGTCGT belongs -0.628 kJ/mol.
Take TGGGTCACGTGACAGG: the “relative binding free energy” value came to 1.09 kJ/mol.
Under TACGTCACGTGTTAGT stands 0.293 kJ/mol; under GGCTTCACGTGAATGT, 1.46 kJ/mol.
In the case of CGGAGCACGTGAGTGG, the “relative binding free energy” value amounted to 0.628 kJ/mol.
Turning to GAGTTCACGTGTTGAG, the “relative binding free energy” value stood at 1.42 kJ/mol.
To ATATGCACGTGGCTTG belongs -0.335 kJ/mol; to GTGATCACGTGTCAGT, 0.502 kJ/mol; to GAGAGCACGTGGGGGA, -0.837 kJ/mol.
Under AGATGCACGTGCCGGG stands -0.209 kJ/mol.
To ATGAGCACGTGGAGTC belongs 0.209 kJ/mol.
AGGTACACGTGAGGGT: the “relative binding free energy” value worked out at 1.09 kJ/mol.
As for TTCGGCACGTGTGTTC, the “relative binding free energy” value is -0.167 kJ/mol.
For GGTTTCACGTGTCGGT, the “relative binding free energy” value was 1.26 kJ/mol.
Under TTAGGCACGTGGCTGT stands -0.879 kJ/mol.
As for GGGTACACGTGGGCAG, the “relative binding free energy” value was found to be 0 kJ/mol.
For the sequence TAACTCACGTGTTTGG, the “relative binding free energy” value was found to be 0.669 kJ/mol.
Take AGTTGCACGTGCTAGT: the “relative binding free energy” value is -0.377 kJ/mol.
For the sequence TATGGCACGTGGAGCG, the “relative binding free energy” value is -0.418 kJ/mol.
Under AGACGCACGTGGAGCG stands 0.0418 kJ/mol; under GTTGTCACGTGCAATG, 0.209 kJ/mol.
Regarding TAGTGCACGTGTAAGT, the “relative binding free energy” value was 0.251 kJ/mol.
To CTTGTCACGTGTGAAG belongs 1.34 kJ/mol.
On to GTGCGCACGTGGATGT, for which the “relative binding free energy” value was -0.335 kJ/mol.
Under TATTGCACGTGTAGTT stands 0.418 kJ/mol; under GTTTGCACGTGTCTGG, 0.251 kJ/mol.
Under AGGGGCACGTGGCAGC stands -1 kJ/mol.
To TGTGCCACGTGGGATT belongs -0.795 kJ/mol.
For TTAGACACGTGGGTTA, the “relative binding free energy” value was -0.46 kJ/mol.
Under GGGGACACGTGGTAGA stands 0.0837 kJ/mol; under AGTGGCACGTGGTCTA, -1.8 kJ/mol; under AGGGTCACGTGGAGAC, 0.167 kJ/mol.
Take ATTATCACGTGGTCTA: the “relative binding free energy” value was determined as 0.126 kJ/mol.
To GTTGTCACGTGGGCGT belongs 0.126 kJ/mol.
Under AGTGGCACGTGTCAAG stands 0.251 kJ/mol; under TGAATCACGTGCTTGT, 0.209 kJ/mol; under GGGTACACGTGACGTG, 1.26 kJ/mol.
Under ACGGGCACGTGAAGTT stands 0.544 kJ/mol.
TTATACACGTGTGTAT: the “relative binding free energy” value is -0.0418 kJ/mol.
To GAGGCCACGTGAGTTG belongs 1.3 kJ/mol; to CTTTGCACGTGAGTGT, 0.628 kJ/mol; to AGTTTCACGTGGCGGA, 0.879 kJ/mol.
To GGGGTCACGTGGCAGC belongs 0.167 kJ/mol.
Turning to CAGGGCACGTGGGAAG, the “relative binding free energy” value was -0.586 kJ/mol.
Consider TTTGGCACGTGAAGTG, for which the “relative binding free energy” value was determined as 0.544 kJ/mol.
As to GAGGTCACGTGTGCGG, the “relative binding free energy” value turned out to be 0.46 kJ/mol.
To AGGTGCACGTGTTATC belongs 0.0418 kJ/mol; to TGGGGCACGTGTGCGT, -0.418 kJ/mol; to AATAGCACGTGATGCT, 0.711 kJ/mol.
As to AGGTACACGTGCTGGG, the “relative binding free energy” value came to 0 kJ/mol.
For the sequence GTCGTCACGTGTAGAG, the “relative binding free energy” value is 0.502 kJ/mol.
For the sequence TTAAGCACGTGCTTTT, the “relative binding free energy” value is -1 kJ/mol.
For CTTGTCACGTGGAGCG, the “relative binding free energy” value was found to be 0.544 kJ/mol.
To GTTGGCACGTGAGATT belongs 1.05 kJ/mol; to TTATACACGTGCGATT, 0.167 kJ/mol; to ATTGTCACGTGTCTCG, 0.586 kJ/mol.
As to CTGGGCACGTGCTTTG, the “relative binding free energy” value is -0.753 kJ/mol.
For ATGTTCACGTGTATGT, the “relative binding free energy” value was 1.21 kJ/mol.
For the sequence GCGTCCACGTGAGTGG, the “relative binding free energy” value amounted to 1.3 kJ/mol.
Regarding GTTTCCACGTGTTTTG, the “relative binding free energy” value was found to be 0.502 kJ/mol.
As for GGTGTCACGTGCACGG, the “relative binding free energy” value was found to be 0.335 kJ/mol.
As to GAGGTCACGTGTGTTG, the “relative binding free energy” value worked out at 0.377 kJ/mol.
ATTGGCACGTGTGTAT: the “relative binding free energy” value is -0.0837 kJ/mol.
To GGTATCACGTGCTGTG belongs 0.795 kJ/mol; to TTGACCACGTGTTAGT, -0.209 kJ/mol.
GTCAGCACGTGGGGGT: the “relative binding free energy” value is -1 kJ/mol.
To GTAAACACGTGGTAGT belongs -0.46 kJ/mol.
In the case of CAGATCACGTGGGGGA, the “relative binding free energy” value came out at 0.0418 kJ/mol.
Under TCGGGCACGTGAGGGC stands 0.418 kJ/mol; under ATGCTCACGTGGTTTT, 1.42 kJ/mol.
To CTGTACACGTGATATT belongs 0.628 kJ/mol.
Turning to CTGTTCACGTGCGTGT, the “relative binding free energy” value amounted to 0.544 kJ/mol.
Under GTTGGCACGTGGGCTC stands -1 kJ/mol.
With AAGTGCACGTGGGTAC, the “relative binding free energy” value was -0.335 kJ/mol.
In the case of GTTCGCACGTGGGTTA, the “relative binding free energy” value was -0.586 kJ/mol.
TGTATCACGTGGTTTT: the “relative binding free energy” value is 0.418 kJ/mol.
As for TGTCGCACGTGGGAGA, the “relative binding free energy” value was -0.293 kJ/mol.
Under GTGTCCACGTGTGTTT stands 0.335 kJ/mol.
To TGTGTCACGTGCTCGA belongs 0.0837 kJ/mol.
Turning to CCGTTCACGTGGGGTG, the “relative binding free energy” value is 0.502 kJ/mol.
As to AGTTTCACGTGATATG, the “relative binding free energy” value was found to be 1.3 kJ/mol.
For the sequence TGCCTCACGTGCGGGG, the “relative binding free energy” value was found to be 0.418 kJ/mol.
For the sequence TATTACACGTGGTAGA, the “relative binding free energy” value was -0.293 kJ/mol.
With ATTTACACGTGGTTTC, the “relative binding free energy” value came to 0.335 kJ/mol.
Under ACGTTCACGTGGGGAA stands 0.46 kJ/mol; under GGTTCCACGTGATGTT, 0.879 kJ/mol; under GTGCGCACGTGTTTTG, 0.0837 kJ/mol.
To ATGTTCACGTGGGTGA belongs 0.837 kJ/mol; to GATTTCACGTGGGATG, 1.13 kJ/mol; to CGCGTCACGTGAGTGG, 0.544 kJ/mol.
To GCTTTCACGTGTGTAG belongs 0.962 kJ/mol.
Turning to TATTTCACGTGTGGGC, the “relative binding free energy” value was 1.26 kJ/mol.
Under GCTCGCACGTGGTGGT stands -0.418 kJ/mol.
On to AGAGGCACGTGAGTCG, for which the “relative binding free energy” value turned out to be 0.209 kJ/mol.
Turning to ATGCACACGTGGCGTT, the “relative binding free energy” value worked out at 0.502 kJ/mol.
With TAAAGCACGTGTAGTG, the “relative binding free energy” value was -0.46 kJ/mol.
Take TTAAACACGTGGTGTC: the “relative binding free energy” value was -0.293 kJ/mol.
Under TCGGGCACGTGAGAAT stands 1.21 kJ/mol; under GTCTTCACGTGGTCGG, 1.09 kJ/mol; under ATTTGCACGTGGAGTG, 0.126 kJ/mol.
Under TTAGCCACGTGTATTA stands 0.753 kJ/mol.
To TTGGTCACGTGAGGTT belongs 2.05 kJ/mol.
As to TATGACACGTGTCGAT, the “relative binding free energy” value was found to be 0.251 kJ/mol.
To CTTATCACGTGGTGAA belongs 0.46 kJ/mol; to GCTCACACGTGGAGTG, 1.42 kJ/mol; to GCTGGCACGTGGTGTA, -0.92 kJ/mol.
Consider ATGAGCACGTGTTATA, for which the “relative binding free energy” value was -0.377 kJ/mol.
For ATGAACACGTGGTATT, the “relative binding free energy” value is -0.0837 kJ/mol.
For the sequence GGAGGCACGTGTCGGG, the “relative binding free energy” value is -0.46 kJ/mol.
On to GGAATCACGTGTGAGG, for which the “relative binding free energy” value was determined as 0.586 kJ/mol.
With TGAAACACGTGTAGTG, the “relative binding free energy” value is -0.209 kJ/mol.
